Source: PubChem BioAssay AID1347165 (National Center for Advancing Translational Sciences (NCATS), 2019)
The campaign covered roughly 220,000 compounds. About 5,700 (2.6%) were called active. Inconclusive means that the source gave no clear call. Such entries were picked first, then a sample of the others. Calls follow the shape of the dose curve; as a rule, active = well fitted inhibition curve with a large enough effect; inconclusive = small, poorly fitted or top-dose-only effect; inactive = no such curve, though single readings can be large or run the other way. A potency beside an inconclusive call is a rough fit, not a confirmed value.

Target: Lysine-specific demethylase 5B (Homo sapiens) (UniProt Q9UGL1)
Sequence of UniProt Q9UGL1 (Q9UGL1 whole entry, looked up): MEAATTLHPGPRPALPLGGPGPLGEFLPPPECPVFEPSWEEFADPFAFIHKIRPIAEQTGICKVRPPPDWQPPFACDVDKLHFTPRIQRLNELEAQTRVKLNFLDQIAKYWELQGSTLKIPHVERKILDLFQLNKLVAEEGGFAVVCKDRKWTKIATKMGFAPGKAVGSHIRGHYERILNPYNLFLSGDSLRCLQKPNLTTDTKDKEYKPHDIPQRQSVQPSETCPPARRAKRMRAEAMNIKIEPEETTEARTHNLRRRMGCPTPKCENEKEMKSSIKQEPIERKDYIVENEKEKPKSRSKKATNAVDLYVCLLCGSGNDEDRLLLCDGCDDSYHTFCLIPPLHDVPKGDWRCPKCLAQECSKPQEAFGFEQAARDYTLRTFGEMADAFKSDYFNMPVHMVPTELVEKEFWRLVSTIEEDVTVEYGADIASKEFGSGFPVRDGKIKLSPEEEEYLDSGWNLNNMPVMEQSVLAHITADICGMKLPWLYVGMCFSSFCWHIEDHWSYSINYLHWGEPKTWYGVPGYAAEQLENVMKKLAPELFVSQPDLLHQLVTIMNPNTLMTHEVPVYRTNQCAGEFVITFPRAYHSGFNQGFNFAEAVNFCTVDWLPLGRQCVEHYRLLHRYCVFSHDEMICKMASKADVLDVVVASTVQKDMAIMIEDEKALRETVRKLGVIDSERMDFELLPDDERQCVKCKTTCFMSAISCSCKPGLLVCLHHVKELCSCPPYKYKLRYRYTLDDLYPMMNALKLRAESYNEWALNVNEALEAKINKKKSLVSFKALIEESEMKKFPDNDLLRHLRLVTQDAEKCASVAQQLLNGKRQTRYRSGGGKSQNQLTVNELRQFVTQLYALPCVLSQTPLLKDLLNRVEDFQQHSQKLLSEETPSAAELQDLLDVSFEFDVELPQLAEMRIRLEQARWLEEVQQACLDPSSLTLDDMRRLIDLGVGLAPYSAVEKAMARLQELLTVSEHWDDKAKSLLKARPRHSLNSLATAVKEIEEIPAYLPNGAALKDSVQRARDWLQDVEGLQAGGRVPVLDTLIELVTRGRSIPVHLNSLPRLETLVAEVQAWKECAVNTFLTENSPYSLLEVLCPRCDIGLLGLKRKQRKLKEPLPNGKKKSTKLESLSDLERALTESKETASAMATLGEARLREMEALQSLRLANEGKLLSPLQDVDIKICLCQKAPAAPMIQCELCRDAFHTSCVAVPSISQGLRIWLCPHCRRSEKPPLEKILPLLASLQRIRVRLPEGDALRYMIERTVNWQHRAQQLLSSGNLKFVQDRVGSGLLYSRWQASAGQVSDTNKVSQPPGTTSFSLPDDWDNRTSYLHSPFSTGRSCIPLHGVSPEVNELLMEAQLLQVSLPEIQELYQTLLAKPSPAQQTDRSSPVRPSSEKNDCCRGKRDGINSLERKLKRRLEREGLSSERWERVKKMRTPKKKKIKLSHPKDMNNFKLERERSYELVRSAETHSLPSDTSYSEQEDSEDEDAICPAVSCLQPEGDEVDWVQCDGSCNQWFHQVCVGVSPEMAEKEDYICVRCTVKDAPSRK
Test: Primary screen for KDM5B Histone Demethylases FDH-coupled qHTS; also: nearly all actives have a fitted effect of over 70% in size; as to activity change, negative = inhibition: 0% is about no effect
Conditions: FDH-coupled NADH fluorescence (FDH is formaldehyde dehydrogenase); activity change, negative = inhibition: at 57.7 µM (top of the series) unless noted
Procedure, shortened: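 Measured: NADH fluorescence change, 30 min, RT. System: KDM5BΔAP 200 nM final, H3K4me3 peptide, α-KG, Fe(II), ascorbate, NAD⁺ plus FDH, pH 7.5 HEPES. Compounds: titrated, 10 min pre-incubation with enzyme.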
Potency is read from the fitted curve at half-maximal effect; tags tell the direction and shape of the fitted curve.

Structure (SMILES) | Potency | activity change, negative = inhibition
O=C(/C=N/O)Nc1cccc([N+](=O)[O-])c1 | inactive | 
COc1cc(C2C3=C(CCCC3=O)Nc3c(C#N)cnn32)ccc1O (centres undefined) | inconclusive: 15.8 µM [inhibitor, partial curve, poor fit] | 
COc1ccc(C(=O)NCCn2cc(SCC(=O)NCCc3ccc(OC)c(OC)c3)c3ccccc32)cc1 | inconclusive: 2 µM [inhibitor, full curve, poor fit] | 
COCCN1Cc2ccc(NCc3ccccc3)nc2C(C)(C(=O)NCc2ccccc2)C1 (centres undefined) | active: 28.2 µM | 
COc1ccc(CN2CCc3nc(C(=O)NCc4cccc(F)c4)oc3CC2)cc1OC | inactive | 
CN1c2cc(C(=O)Nc3cc(F)ccc3F)ccc2C(=O)N2CCCCCC21 (centres undefined) | inconclusive: 28.2 µM [inhibitor, partial curve, poor fit] | 
Cc1cc(=O)oc2c1ccc1oc(/C(=N/O)c3ccccc3)c(-c3ccccc3)c12 | inconclusive: 39.8 µM [inhibitor, single point] | 
COc1ccc(-c2cc(C(=O)O)cc(S(=O)(=O)N3CCN(C)CC3)c2)cc1 | active: 15.8 µM | 
CC(C)CCOc1ccc(C(=O)CCN(C)C)cc1 | inconclusive: 25.1 µM [inhibitor, partial curve, poor fit] | 
COc1ccc(SCC(=O)Nc2ccc(C(=O)N(C)C)cc2)cc1 | inactive | 
CC(=O)c1ccc(NC(=O)CC2Nc3cccc4cccc(c34)NC2=O)cc1 (centres undefined) | inconclusive: 15.8 µM [inhibitor, partial curve, poor fit] | 
NC(=O)c1cccc2[nH]c([C@H]3CCN(Cc4cccc(Cl)c4)C3)nc12 | active: 35.5 µM | 
CC(C)N1C[C@H](O)C[C@H]1c1nc(-c2ccc3c(c2)OCO3)no1 | inconclusive: 35.5 µM [inhibitor, single point] | 
CSc1ccc(CCNC(=O)CCCn2nc(C)c3sc4ccccc4c3c2=O)cc1 | inconclusive: 39.8 µM [inhibitor, single point] | 
O=C(Cc1cccs1)N1CCCN(CCc2ccccc2)c2ccccc21 | active: 22.4 µM | 
O=C(COc1cccnc1[N+](=O)[O-])c1c[nH]c2ccccc12 | inactive | 
CC[C@H]1CN(S(=O)(=O)c2ccc(OC)cc2)CC[C@H]1CC(=O)N1CCOCC1 | inactive | 
CC1(C(=O)NC2COC2)CN(Cc2ccccc2)Cc2ccc(Nc3ccccc3)nc21 (centres undefined) | active: 35.5 µM | 
COc1cccc(NC(=O)CCc2c(C)nc3c4cccnc4nn3c2C)c1 | inconclusive: 28.2 µM [inhibitor, partial curve, poor fit] | 
O=C(Nc1ccc(N2CCC(c3ccccc3)C2)c(C(=O)O)c1)c1ccc(Cl)cc1 (centres undefined) | inconclusive: 20 µM [inhibitor, partial curve, poor fit] | 
CC(C)NC(=O)NC(=O)COC(=O)c1ccc2ccccc2n1 | inconclusive: 28.2 µM [inhibitor, single point] | 
COc1ccc(NC(=O)Cn2c(C)cc3ccccc3c2=O)c(OC)c1 | inconclusive: 10 µM [inhibitor, partial curve, poor fit] | 

Structure (SMILES) | Potency | activity change, negative = inhibition
CCOC(=O)c1ccc(NC(=O)N2Cc3[nH]cnc3C[C@H]2c2nc(-c3cccc(C)c3)no2)cc1 | inconclusive: 20 µM [inhibitor, single point] | 
COc1ccc2c(=O)cc(-c3ccc(C)cc3)oc2c1 | inconclusive: 22.4 µM [inhibitor, partial curve, poor fit] | 
Cc1ccc(S(=O)(=O)N2CCN(c3ccccn3)CC2)cc1 | inconclusive: 31.6 µM [inhibitor, single point] | 
Cc1cc(C)c(NS(=O)(=O)c2c(C)cc(N3C(=O)CCS3(=O)=O)cc2C)c(Cl)c1 | inactive | 
Cc1cccc(CC(=O)N2CCC3(CC2)CCC(O)(CN(C)C)CC3)c1 | inconclusive: 25.1 µM [inhibitor, single point] | 
O=C(Cc1ccccc1Cl)NCc1nnc2c(-c3nc(C4CC4)no3)cccn12 | inconclusive: 3.55 µM [inhibitor, partial curve, poor fit] | 
CC(C)c1noc(C2Cc3ccccc3N2C(=O)Nc2ccc3c(c2)OCCO3)n1 (centres undefined) | inconclusive: 15.8 µM [inhibitor, partial curve, poor fit] | 
CC(=O)NC1C(=O)N(CCOc2ccccc2)c2ccccc21 (centres undefined) | inactive | 
CC(Oc1cccc(Cl)c1)C(=O)NCc1nnc2ccc(-c3ccccc3)nn12 (centres undefined) | inconclusive: 39.8 µM [inhibitor, single point] | 
C=CCNCC(O)COc1ccc(C(C)=O)cc1OC (centres undefined) | inconclusive: 14.1 µM [inhibitor, partial curve, poor fit] | 
Cn1ccnc1CNC(=O)C[C@@H]1C[C@H]2O[C@H](CN)[C@@H](O)[C@H]2O1 | inactive | 
O=C(CCc1cc2ccccc2o1)NC12CC3CC(CC(C3)C1)C2 | inactive | 
Nc1ncnc(Nc2ccc(F)c(Cl)c2)c1[N+](=O)[O-] | inactive | 
N#Cc1nc(-c2ccco2)oc1N1CCN(c2ccccc2)CC1 | inconclusive: 39.8 µM [inhibitor, single point] | 
COC(=O)c1nc2n(n1)C(c1cccc(Br)c1)C(C(=O)Nc1ccc(C)cc1C)=C(C)N2 (centres undefined) | inactive | 
COc1ccc(NC(=O)C(=O)NCCc2ccc(OC)c(OC)c2)c(OC)c1 |  | inconclusive: -35.8% [inhibitor]
CCC(C)(C#N)NC(=O)c1ccc2c(c1)CCC2 (centres undefined) | inactive | 
Cc1cc(C)n(CC(=O)N[C@@H]2CN(Cc3ccccc3)C[C@H]2CN(C)C)c(=O)n1 | active: 8.91 µM | 
CC(Sc1nnc(-c2cccs2)n1C1CC1)C(=O)N1CCc2ccccc2C1 (centres undefined) | inactive | 
Cc1ccc(Cn2c(CNS(=O)(=O)c3ccc(C(C)(C)C)cc3)nc3cccnc32)cc1 | inconclusive: 11.2 µM [inhibitor, partial curve, poor fit] | 
CC(=O)Nc1ccc(SCC(=O)c2ccc3c(c2)CCC3)cc1 | inconclusive: 39.8 µM [inhibitor, single point] | 
O=C(c1cc(-c2ccc(Cl)cc2)on1)N(Cc1cccc(F)c1)Cc1ccco1 |  | inconclusive: -35.3% [inhibitor]
